Laboratory results as given in the supplement of paper PMC7826260.
The list shows a part of the results. Cleavage of a single-stranded DNA pool by Rep nickase domains was read by sequencing (1 h at 37 °C, 3 µM enzyme); the outer parts of the 90-letter strands are left off. Numbers give uncut DNA relative to the enzyme-free pool, as log2; strong cutting gives strongly negative numbers. There is no active / inactive call. Because reads are shares of a total, they shift together; values above 0 arise when much of the pool is cut.

Test system: T1, Rep nickase domain of tomato golden mosaic virus
T1 sequence (Rep 1-124, printed without the tag): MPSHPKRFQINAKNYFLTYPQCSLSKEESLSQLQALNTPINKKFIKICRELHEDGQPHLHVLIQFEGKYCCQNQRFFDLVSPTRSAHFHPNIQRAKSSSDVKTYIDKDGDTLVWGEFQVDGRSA
Test: uncleaved DNA left, log2 of reads against the no-enzyme library (log2 ratio); higher = less cleavage (more negative = more Rep cleavage of the k-mer); sequences stand for … in CTCGTCCG…ACCGGAGA
Method: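 A pool of 90-nt single-stranded DNAs with seven random bases just before the constant AC of the nick site (name = the seven bases) was cut by 3 µM recombinant His6-SUMO-tagged Rep nickase domain (300 nM DNA, 50 mM HEPES pH 8.0, 50 mM NaCl, 1 mM MnCl2, 1 h, 37 °C, three replicates). Uncut DNA was amplified and sequenced.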

| Sequence | uncleaved DNA left (log2) |
| --- | --- |
| ACAGGAA | 0.0386 |
| CTCAGCT | -0.0943 |
| TGGCCTC | -0.0542 |
| GAGAGTC | -0.0956 |
| GGGTAGA | -0.000265 |
| AGTTAAT | -0.104 |
| GACCGCC | -0.0279 |
| CATGGGT | 0.137 |
| AACACCC | -0.0772 |
| CCGCCTG | -0.0014 |
| TACCTTC | 0.00766 |
| AAGAAAA | 0.0464 |
| TGCCTTG | 0.0448 |
| GCATACT | -0.176 |
| TCTGCCT | -0.0508 |
| AACGCCC | 0.0212 |
| AACGCCA | 0.0777 |
| CAACGAG | 0.0353 |
| ATTTAAG | 0.0543 |
| ACAAAGC | 0.167 |

| Sequence | uncleaved DNA left (log2) |
| --- | --- |
| TGATACT | -0.528 |
| ACCGACC | -0.135 |
| CTATCAT | 0.1 |
| TGGAATA | 0.0351 |
| GACGTCA | 0.0865 |
| TTTCCTA | -0.0927 |
| CGTCTGG | -0.156 |
| TAGCATT | -0.268 |
| ATAGCCC | 0.13 |
| AAGGGCA | 0.069 |
| TTGTAAT | 0.0531 |
| ACTCAAG | 0.0786 |
| ACTGCCC | 0.0797 |
| CGAGTAG | -0.0427 |
| GGCCCTA | -0.0186 |
| GTAACTC | 0.0785 |
| GCATGGA | -0.0256 |
| CTTTTTG | -0.0884 |
| CACGCGG | 0.0677 |
| GGCACTC | -0.126 |
